Measurements as given in PubChem BioAssay (Tox21).
The inconclusive results got no clear call from the source; some entries with a clear call stand among them for comparison. Where the call is inconclusive, the potency comes from a doubtful curve fit. Where a structure was tested more than once in an assay, its records may differ in their call. Calls of active or inactive are those of the source. Calls come from the whole dose curve; as a rule, active = well fitted cell-killing curve with a large enough effect in the repeat runs; inconclusive = weak or mixed curves, or effect the other way; inactive = flat fitted curve, though single readings scatter.

Assay: Caspase-3/7 induction in HepG2 cells by small molecules, qHTS cell viability counter screen (AID 1346981); note: nearly all actives have a fitted effect of over 30% in size
Details: CellTiter-Fluor fluorescence, 17 h; series mostly up to 92.4 µM
Procedure, shortened: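 HepG2, WT, 2,000 cells/well; 5 hr pre-incubation 37 C/5% CO2; compound pin-transferred from DMSO; 16 hr exposure; CellTiter-Fluor, 1 hr; fluorescence read.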
% is set by controls: 0 for no effect and ±100 for the full control effect; potency is the fitted concentration of half-maximal effect; tags give direction and shape of the fitted curve.

| Compound | Potency |
| --- | --- |
| CCC[CH2][Sn]([CH2]CCC)([CH2]CCC)[CH2]CCC | active: 61.1 µM |
| CC(c1ccc(O)cc1)(c1ccc(O)cc1)c1ccc(O)cc1 | inconclusive: 68.6 µM [cytotoxic, single point] |
| c1cc[c]([Hg][c]2ccccc2)cc1 | inactive |
| Oc1cc(Cl)c(Cl)c(Cl)c1 | inconclusive: 73 µM [cytotoxic] |
| CCC(C)c1cc([N+](=O)[O-])cc([N+](=O)[O-])c1OC(=O)C=C(C)C (stereo unspecified) | inconclusive: 21.7 µM [cytotoxic, full curve] |
| c1ccc2c(c1)cc1ccc3cccc4ccc2c1c34 | inconclusive: 17.6 µM [rising, partial curve] |
| Cc1ccc2cc3c(ccc4ccccc43)c3c2c1CC3 | inconclusive: 2.44 µM [cytotoxic, full curve] |
| CN1CSC(=S)N(C)C1 | inconclusive: 6.08 µM [cytotoxic, full curve, poor fit] |
| Nc1ccccc1-c1ccccc1 | inactive |
| [Cl][Hg][c]1ccccc1 | active: 12.2 µM |
| ClC1=C(Cl)[C@]2(Cl)[C@@H]3[C@@H]4C[C@@H]([C@H]5O[C@@H]45)[C@@H]3[C@@]1(Cl)C2(Cl)Cl | inconclusive: 77 µM [cytotoxic, single point] |
| Cc1cc(Cl)ccc1OCCCC(=O)O | inconclusive: 24.1 µM [rising, single point] |
| C[C@H]1O[C@@H](O[C@H]2[C@@H](O)C[C@H](O[C@H]3[C@@H](O)C[C@H](O[C@H]4CC[C@@]5(C)[C@H](CC[C@@H]6[C@@H]5CC[C@]5(C)[C@@H](C7=CC(=O)OC7)CC[C@]65O)C4)O[C@@H]3C)O[C@@H]2C)C[C@H](O)[C@@H]1O | inconclusive: 0.275 µM [cytotoxic, full curve, poor fit] |
| CN(C)C(=S)S | inconclusive: 54.5 µM [cytotoxic, partial curve, poor fit] |
| CC(C)(c1ccc(OCC2CO2)cc1)c1ccc(OCC2CO2)cc1 (stereo unspecified) | inconclusive: 69.5 µM [cytotoxic, single point] |
| O=C(O)COc1nc(Cl)c(Cl)cc1Cl | inconclusive: 22.2 µM [rising, partial curve, poor fit] |

| Compound | Potency |
| --- | --- |
| COc1ccc(C(CN(C)C)C2(O)CCCCC2)cc1 (stereo unspecified) | inconclusive: 27.3 µM [rising, partial curve, poor fit] |
| COc1ccc(C(c2ccc(OC)cc2)C(Cl)(Cl)Cl)cc1 | inconclusive: 24.2 µM [rising, partial curve, poor fit] |
| CC(C)Oc1cc(-n2nc(C(C)(C)C)oc2=O)c(Cl)cc1Cl | inconclusive: 68.6 µM [cytotoxic, partial curve, poor fit] |
| CCCCCCCCCCCCn1cc[n+](C)c1 | inconclusive: 78.3 µM [cytotoxic, single point] [middle of 4 runs] |
| O=[N+]([O-])c1cc(C(F)(F)F)c(Cl)c([N+](=O)[O-])c1Cl | active: 61.1 µM |
| O=C(NC(=O)c1c(F)cccc1F)Nc1ccc(Oc2ccc(C(F)(F)F)cc2Cl)cc1F | inconclusive: 77 µM [cytotoxic, single point] |
| CN1CCc2cc3c(cc2C1O)OCO3 (stereo unspecified) | inconclusive: 43.5 µM [rising, partial curve, poor fit] |
| COP(=O)(OC)SCn1c(=O)oc2cc(Cl)cnc21 | inconclusive: 61.1 µM [cytotoxic, single point] |
| NC(=O)O | inconclusive: 27.3 µM [rising, partial curve, poor fit] |
| CCC(C)c1cccc(C(C)CC)c1O (stereo unspecified) | inactive |
| CCN1CCC2(CC1)COc1cc3c(cc12)N(C(=O)c1ccc(-c2ccc(-c4nnc(C)o4)cc2C)cc1)CC3 | active: 50.2 µM |
| CC1(C)C(C(=O)OC(C#N)c2cccc(Oc3ccccc3)c2)C1(C)C (stereo unspecified) | inconclusive: 77.5 µM [cytotoxic, single point] |
| CC(O)C(=O)[O][Hg][c]1ccccc1 (stereo unspecified) | active: 4.86 µM |
| CCOP(=O)(OCC)O/C(=C/Cl)c1ccc(Cl)cc1Cl | inconclusive: 68.6 µM [cytotoxic, single point] |
| C=CCC1=C(C)[C@@H](OC(=O)[C@@H]2[C@@H](C=C(C)C)C2(C)C)CC1=O | inconclusive: 61.1 µM [cytotoxic, single point] |
